# Data taken from PubChem BioAssay AID1508642 (National Center for Advancing Translational Sciences (NCATS), 2021).
# Screen size: about 43,000 compounds; about 200 (0.47%) were called active. Roughly 12% stayed inconclusive and do not appear here. Calls come from the whole dose curve; as a rule, active = well fitted cell-killing curve with a large enough effect; inconclusive = small, poorly fitted or top-dose-only effect, or effect the other way; inactive = flat fitted curve, though single readings scatter. This is one part of the list.
# Assay: Cell viability qHTS assay in S16 Pmp22-F2sN cells; note: nearly all actives have a fitted effect of over 65% in size
# Conditions: S16 Pmp22-F2sN Schwann cells (luciferase reporters placed in the Pmp22 gene) viability, CellTiter-Glo, 24 h; series mostly up to 57.5 µM; activity change, negative = cytotoxicity: at the top concentration
# Summary of the method: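 CellTiter-Glo counter-screen, qHTS, 1536-well. Cells: S16(c9) Pmp22-F2sN, 500-1,000/well in DMEM + 10% FBS. Cpd 23 nL pin transfer, 24 h, 37C/5% CO2. Read: luminescence, CCD imager.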
# % is set by controls: 0 for no effect and ±100 for the full control effect.
row,SMILES,"activity change, negative = cytotoxicity"
1,CC1CCC(Nc2ncnc3onc(-c4ccc(Cl)cc4)c23)CC1 (stereo not drawn),inactive: -1.35%
2,COc1ccc(-c2coc3c2c(C)cc2oc(=O)c(C)c(C)c23)cc1,inactive: 1.15%
3,Cc1ccccc1NC(=O)CSc1nc2ccc(NC(=O)c3ccccc3)cc2s1,inactive: 3.64%
4,COc1ccc(OC)c(CCNc2nccn(-c3ccc(C)c(C)c3)c2=O)c1,inactive: -25.2%
5,O=C(NCC(c1cccnc1)N1CCOCC1)C(=O)Nc1ccc(F)cc1 (stereo not drawn),inactive: -4.87%
6,Cn1c(SCc2cccc(F)c2)nc2c([nH]c3ccccc32)c1=O,inactive: 6.04%
7,CCCn1ccc2c(OCC(=O)Nc3ccccc3OCC)cccc2c1=O,inactive: -4.29%
8,COc1ccc(Cn2c(=O)[nH]c3cc(C(=O)N4CCN(c5ccccc5)CC4)ccc3c2=O)cc1,inactive: -3.2%
9,Cc1ccc(CNC(=O)CCC(=O)N2Cc3ccccc3Oc3ncccc32)cc1,inactive: 16%
10,CCc1ccccc1Nc1cc(C(=O)NCCc2ccccc2)c2ccccc2n1,inactive: -22.1%
11,COc1ccc(N2CCN(Cc3cc(=O)oc4ccc(OC)cc34)CC2)cc1,inactive: 11%
12,COc1ccccc1NC(=O)C1=C(C)Nc2nc3ccccc3n2C1c1cccc(Br)c1 (stereo not drawn),inactive: 1.16%
13,CCOC(=O)c1ccc2c(c1)N(Cc1cccc(C(F)(F)F)c1)C(=O)c1ccccc1S2(=O)=O,inactive: -12.5%
14,CCCOc1ccc(Nc2cc(C)nc(C)n2)cc1,inactive: 9.22%
15,COCCCNS(=O)(=O)c1ccc(N2CCCCS2(=O)=O)cc1,inactive: -2.78%
16,COc1ccc(C(=O)Oc2c(Sc3ccccc3)c(C)nn2-c2ccccc2)cc1OC,inactive: 8.77%
17,Cc1ccc(NC(=O)CN2C(=O)CSc3ccc(S(=O)(=O)N4CCCC4)cc32)c(C)c1,inactive: 5.07%
18,O=C(Nc1ccc2nc(SCC(=O)N3CCCc4ccccc43)sc2c1)c1cccc(Cl)c1,inactive: -11%
19,COc1ccc(CCNC(=O)C2CCN(c3nc4ccccc4nc3C(F)(F)F)CC2)cc1OC,inactive: -21.3%
20,O=C(Cc1ccc(F)cc1)NCCc1csc(-c2cccc(F)c2)n1,inactive: 13%
21,CC(C)NC(=O)N1CCC(N2CCN(Cc3ccc(F)cc3)C(=O)C2=O)CC1,inactive: 6.54%

row,SMILES,"activity change, negative = cytotoxicity"
1,CCOc1ccc(N(CC)S(=O)(=O)N2CCCC(C(=O)NCc3ccc(Cl)cc3)C2)cc1 (stereo not drawn),inactive: -21.5%
2,COc1ccc(-c2noc(Cn3c(=O)c4ccccc4n(CC(=O)Nc4cccc(C(F)(F)F)c4)c3=O)n2)cc1,inactive: -25.2%
3,Cc1ccc(C)c(NS(=O)(=O)c2ccc3c(c2)n(C)c(=O)n3C)c1,inactive: -2.92%
4,Cc1oc(-c2cccc(Br)c2)nc1Cn1c(=O)cc(-c2ccccc2)c2c(C)nn(C)c21,inactive: -2.04%
5,CCc1nc2onc(C)c2c(=O)n1CC(=O)O,inactive: 12.4%
6,O=C(c1cccc(Cl)c1)N(Cc1ccco1)Cc1ccccc1Cl,inactive: 0.537%
7,Cc1ccccc1-c1nc(CS(=O)(=O)CC(=O)Nc2cccc(C(F)(F)F)c2)c(C)o1,inactive: 16.6%
8,COc1ccc2c(c1)c1c(c(=O)n(Cc3ccccc3)c(=O)n1CC(=O)Nc1c(C)cccc1C)n2C,inactive: -1.26%
9,Cc1ccc(S(=O)(=O)NCCc2sc3nc(-c4ccccc4)nn3c2C)cc1C,inactive: -23%
10,CCn1c(SCC(=O)N2CCC(C)CC2)nnc1-c1ccccc1O,inactive: -5.67%
11,CSc1cccc(NC(=O)Cn2nc(C)c3sc4ccccc4c3c2=O)c1,inactive: -17.7%
12,Cc1cccc(-c2nnc(SCC(=O)N3CCCc4ccccc43)o2)c1,inactive: -1.74%
13,COc1cc2c(cc1OC)C(COc1ccc(F)cc1)N(C(=O)c1ccccc1F)CC2 (stereo not drawn),inactive: 13.6%
14,CC(C)OCCCN(C)C1CCN(S(=O)(=O)c2csc(C(N)=O)c2)CC1,inactive: 3.42%
15,CCOCCCNC(=O)Nc1cc(C(=O)NCc2ccc(C(C)C)cc2)ccc1N1CCCC1,inactive: 4.62%
16,COc1ccc(-n2c(C)nc3cc(C(=O)NC4CCCC4)ccc32)cc1,inactive: 1.75%
17,Cc1ccc(S(=O)(=O)c2nnn3c2nc(NCc2cccs2)c2sccc23)cc1C,inactive: -1.55%
18,Cc1cc(C)cc(NC(=O)C2CCN(c3cc(C)nc4c(-c5ccc(Cl)cc5)c(C)nn34)CC2)c1,inactive: -5.98%
19,COC(=O)C(C)NC(=O)N1CCN(c2nnc(C)c3c(C)n(-c4ccc(Cl)cc4)nc23)CC1 (stereo not drawn),inactive: 1.22%
20,CC(C)N(C(=O)c1cc2c(Cl)nc3ccccc3c2s1)C1CCCCC1,inactive: 4.24%
21,COc1cccc2sc(N3CCN(C(=O)CS(=O)(=O)c4ccc(Cl)cc4)CC3)nc12,inactive: 0.252%

row,SMILES,"activity change, negative = cytotoxicity"
1,COc1cccc(CNc2ncc(-c3ccc(Br)cc3)n2C)c1,inactive: 8.73%
2,COc1ccc(-n2c(SCC(=O)Nc3nnc(C)s3)nc3c([nH]c4ccccc43)c2=O)cc1,inactive: -15.1%
3,CCOC(=O)c1scc(-c2ccc(C)cc2)c1S(=O)(=O)Nc1cccc(CC)c1,inactive: 6.3%
4,O=C(NCCCN1CCN(c2ccccc2)CC1)c1nnc(Cc2ccc(F)cc2)o1,inactive: -2.38%
5,O=C(O)CC(NS(=O)(=O)c1ccc(Br)s1)c1ccccc1 (stereo not drawn),inactive: 6.87%
6,Cc1cc(C)c(S(=O)(=O)N2CCN(Cc3nc4ccc(C)cc4o3)CC2)c(C)c1,inactive: -11.4%
7,CC1=C(C(=O)Nc2cc(C)ccc2C)C2(CCCCCC2)OC1=O,inactive: -4.98%
8,Cc1cccc(C(=O)Nc2cc3c(cc2N2CCOCC2)n(C)c(=O)n3C)c1,inactive: 15.9%
9,CCOC(=O)c1ccccc1Nc1cc(C)nc2nc(-c3ccco3)nn12,inactive: -0.61%
10,Cn1c(SCC(N)=O)nc2c([nH]c3ccccc32)c1=O,inactive: 18.3%
11,O=C(O)c1ccc(Nc2nc(-c3ccccc3)c3cc(Br)ccc3n2)cc1,inactive: 1.68%
12,COc1ccc(-c2nc3ccc(NS(C)(=O)=O)cc3o2)cc1,inactive: 8.87%
13,Clc1ccccc1Cn1cccc1C1=NC(Cc2ccccc2)CO1 (stereo not drawn),inactive: 23.2%
14,Fc1ccc(-c2nc(-c3cccs3)c(-c3cccs3)[nH]2)cc1,inactive: -0.297%
15,Cc1nn(-c2ccccc2)c2c1N(CC(=O)NCc1ccc(N(C)C)cc1)C(=O)CS2,inactive: -24%
16,Cc1cccc(NC(=O)CSc2nc3ccc(NC(=O)COc4ccc(Cl)cc4)cc3s2)c1,inactive: -3.04%
17,Cc1c(NC(=O)Cc2ccc(F)cc2)cccc1-c1nc2cccnc2s1,inactive: 2.31%
18,Cc1ccc(N(Cc2cccs2)C(=O)c2ccccc2)cc1,inactive: 2.1%
19,O=C(NCCOCCO)C(=O)Nc1c2c(nn1-c1ccc(F)cc1)CSC2,inactive: 6.34%
20,CCC(=O)N1CCc2cc(S(=O)(=O)CCC(=O)N3CCN(c4ccccc4Cl)CC3)ccc21,inactive: 17.5%
21,CN(c1ncnc2c1c(-c1ccccc1)cn2-c1ccc(F)cc1)C1CCCCC1,inactive: -4.95%
